Laboratory results reported in PubChem BioAssay AID624417 (National Center for Advancing Translational Sciences (NCATS), 2012).
The whole screen tested about 410,000 compounds, of which about 6,400 (1.6%) were called active. This list was built around the results that the source calls inconclusive (neither active nor inactive); the mix of calls is not that of the screen. Calls come from the whole dose curve; as a rule, active = well fitted inhibition curve with a large enough effect; inconclusive = small, poorly fitted or top-dose-only effect; inactive = no such curve, though single readings can be large or run the other way. Where the call is inconclusive, the potency comes from a doubtful curve fit.

Each molecule was assayed against Glucagon-like peptide 1 receptor (Homo sapiens) (UniProt P43220) (assay: qHTS of GLP-1 Receptor Inverse Agonists (Inhibition Mode)). Details: HEK293 GLP-1R CRE-luciferase, luminescence, 24 h, GLP-1R form is constitutively active; activity change, negative = inhibition: at 38.3 µM (top of the series) unless noted.
Outline: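 Readout was luciferase luminescence, measured 12 min after detection reagent at room temperature. Beforehand, GLP-1R reporter HEK293 cells had sat 12 h, then received compounds for 24 hr at 37 deg C.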
% is set by controls: 0 for no effect and ±100 for the full control effect; potency is the fitted concentration of half-maximal effect; tags give direction and shape of the fitted curve.
Note: nearly all actives have a fitted effect of over 55% in size.

Chain of UniProt P43220 (P43220 whole entry, looked up): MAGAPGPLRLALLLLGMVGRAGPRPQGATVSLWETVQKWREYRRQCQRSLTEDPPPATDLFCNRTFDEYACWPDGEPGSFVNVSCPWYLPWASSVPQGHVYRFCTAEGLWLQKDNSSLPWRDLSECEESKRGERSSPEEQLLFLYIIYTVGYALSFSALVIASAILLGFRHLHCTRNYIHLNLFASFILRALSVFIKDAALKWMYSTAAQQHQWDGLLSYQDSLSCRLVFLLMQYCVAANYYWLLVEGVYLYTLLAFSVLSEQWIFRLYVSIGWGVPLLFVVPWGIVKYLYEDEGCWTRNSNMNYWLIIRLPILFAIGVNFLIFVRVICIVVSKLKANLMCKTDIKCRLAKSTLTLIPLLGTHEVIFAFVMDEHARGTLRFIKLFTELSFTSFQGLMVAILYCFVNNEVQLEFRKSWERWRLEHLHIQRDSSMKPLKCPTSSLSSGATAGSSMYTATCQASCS

Potency, inconclusive:
CC(/C=C/c1ccc(N(C)C)cc1)=N\N=C(/N)SC1CC(=O)N(c2ccc(C(=O)O)cc2)C1=O (stereo not drawn) 8.91 µM [inhibitor, partial curve, poor fit]
Nc1cc2ccncc2c2ccccc12 3.98 µM [inhibitor, partial curve, poor fit]
COc1ccc(-c2nnc(Nc3ccc(CC(N)=O)cc3)c3ccccc23)cc1 7.94 µM [inhibitor, partial curve, poor fit]
CCCCCC1C/C(=N\O)C=C(C)C1C(=O)OC (stereo not drawn) 15.8 µM [inhibitor, single point]
C/C(=N\Nc1cc(N2CCOCC2)nc(C)n1)c1ccc(F)cc1 3.55 µM [inhibitor, partial curve, poor fit]
CC1CCN(CCC(=O)Nc2ccc(Cl)cc2)CC1 2.51 µM [inhibitor, partial curve, poor fit]
CC[n+]1ccccc1/C=C1\Sc2ccc(C)cc2N1C 7.94 µM [inhibitor, partial curve, poor fit]
CCOc1ccc2c(c1)C(C)=CC(C)(C)N2S(=O)(=O)c1ccc(C)cc1 2 µM [inhibitor, partial curve, poor fit]
O=C(CN1CCCCC1)Nc1nc(-c2ccc(F)c(F)c2)cs1 7.08 µM [inhibitor, partial curve, poor fit]
CCN(Cc1cnn(C)c1)C(=O)c1cc(COc2cc(C)c(Cl)c(C)c2)on1 28.2 µM [inhibitor, single point]
CCOC(=O)COc1c(OC)cc(Cl)cc1C1Nc2ccccc2C(=O)N1c1ccccc1 (stereo not drawn) 20 µM [inhibitor, single point]
Cc1ccc(SCC(=O)Nc2cccc(S(=O)(=O)N3CCOCC3)c2)cc1C 10 µM [inhibitor, single point]
Cc1ccc2nc(C3CCCCC3)c(Cc3cccc(Cl)c3)n2c1 28.2 µM [inhibitor, single point]
COC(=O)c1ccc(NC(=O)Nc2ccc(F)cc2)cc1 12.6 µM [inhibitor, partial curve, poor fit]
CCCC(=O)NC(c1ccccc1Cl)c1ccc2cccnc2c1O (stereo not drawn) 1.26 µM [inhibitor, full curve, poor fit]
CC(=O)c1c(O)cc(O)c(C(C)=O)c1O 7.94 µM [inhibitor, partial curve, poor fit]
COc1cc2c(c(OC)c1CC=C(C)C)C[C@H](c1ccc(O)cc1O)CO2 22.4 µM [inhibitor, single point]
CCN(c1ccc(NC(=O)CSc2ccc3c(c2)OCCO3)cc1)C(C)C 12.6 µM [inhibitor, partial curve, poor fit]
COC(=O)[C@@]1(Cc2ccccc2)[C@H]2C(=O)N(Cc3ccccc3)C(=O)[C@H]2[C@H]2CN=C(SCc3ccccc3)N21 28.2 µM [inhibitor, single point]
O=C(c1ccc(Cl)cc1)N1CCN(c2cccc3[nH]ccc23)CC1 10 µM [inhibitor, single point]
CCn1cc(C(=O)NCCc2ccccc2)c(=O)c2cc(F)c(N3CCN(C)CC3)cc21 7.94 µM [inhibitor, partial curve, poor fit]
FC(F)(F)c1cccc(NC(=S)N2CCN(c3ccccn3)CC2)c1 31.6 µM [inhibitor, partial curve, poor fit]
COc1ccccc1N1CCN(CCCCOc2cccc3ccccc23)CC1 7.08 µM [inhibitor, partial curve, poor fit]
CC(C)(C)C(=O)N1NC(=Nc2ccccc2)SC1(C)C 2 µM [inhibitor, full curve]
Cc1ccc(C(=O)N2CCCC(CCC(=O)N3CCN(c4ccccn4)CC3)C2)cc1C (stereo not drawn) 5.62 µM [inhibitor, full curve, poor fit]
Cc1cc(C)cc(NC(=O)COC(=O)C2CC3C=CC2C3)c1 (stereo not drawn) 28.2 µM [inhibitor, single point]
COc1ccc(C)cc1S(=O)(=O)N1CCN(S(=O)(=O)c2cc(C)ccc2OC)C(C)C1 (stereo not drawn) 12.6 µM [inhibitor, partial curve, poor fit]
COc1ccc(Cl)cc1NC(=O)N1CC(=O)Nc2sc3c(c2C1c1ccccc1)CCCC3 (stereo not drawn) 15.8 µM [inhibitor, single point]
CC(C)NC(=O)NC(=O)CSc1nnc(COc2ccccc2F)n1C(C)C1CC2CCC1C2 (stereo not drawn) 28.2 µM [inhibitor, single point]
Cc1ccc(NC(=O)c2cccc(S(=O)(=O)N3CCc4ccccc4C3)c2)nc1 31.6 µM [inhibitor, partial curve, poor fit]
CN(C)CCN=Cc1c(O)n(Cc2ccccc2)c(=O)c2ccccc12 31.6 µM [inhibitor, single point]
CC(CCc1ccccc1)NC(=O)/C=C/c1ccc(Cl)cc1 (stereo not drawn) 14.1 µM [inhibitor, single point]
CC(C)(C)c1ccc2c(c1)OC(C(=O)N/N=C\c1ccc[nH]1)CO2 (stereo not drawn) 7.08 µM [inhibitor, partial curve, poor fit]
O=C(CC(c1ccccc1)c1ccccc1)Nc1ccncc1 11.2 µM [inhibitor, single point]
COc1ccc2cc(C(=O)C3CCCN(Cc4cnc(N5CCOCC5)s4)C3)ccc2c1 (stereo not drawn) 1.58 µM [inhibitor, full curve, poor fit]
CC1CCN(CCCNC(=O)c2cc3c(Cl)nc4ccccc4c3s2)CC1 28.2 µM [inhibitor, single point]
Cc1[nH]n(C(C)(C)C)c(=O)c1Sc1ccc(Cl)cc1 17.8 µM [inhibitor, partial curve, poor fit]
O=C(CN1CCCC1)Nc1ccccc1Sc1ccccc1 8.91 µM [inhibitor, partial curve, poor fit]
COc1ccccc1CNc1ncnc2c1c(-c1ccccc1)cn2-c1cccc(C)c1 7.94 µM [inhibitor, partial curve, poor fit]
CN(C)S(=O)(=O)c1ccc(Cl)c(NC(=O)CN2CCCCCC2)c1 5.62 µM [inhibitor, full curve, poor fit]
CCCN(CC(=O)Nc1ccccc1C)C(=O)C1CCN(S(=O)(=O)c2ccc(C)c(C)c2)CC1 28.2 µM [inhibitor, single point]
Cc1nc(N2CCN(Cc3ccccc3)CC2)c(C#N)c2c1COC(C)(C)C2 11.2 µM [inhibitor, partial curve, poor fit]
Cc1ccccc1CNC(=O)CCC(=O)N1CC2CCCN2c2ccccc21 (stereo not drawn) 12.6 µM [inhibitor, partial curve]
Cc1ccccc1C(=O)NC(=S)NC1CC1 11.2 µM [inhibitor, single point]
OC(COc1ccccc1)CN1CCN(c2cccc(Cl)c2)CC1 (stereo not drawn) 11.2 µM [inhibitor, single point]
Cc1ccc(-c2cc(-c3ccc(F)cc3)n[nH]2)c(O)c1 10 µM [inhibitor, single point]
CCNc1nc(Oc2ccc(C(=O)OC)cc2)nc(SC)n1 3.16 µM [inhibitor, partial curve, poor fit]
Cc1ccccc1Cn1ccc(NC(=O)c2onc(C)c2Cl)n1 14.1 µM [inhibitor, partial curve, poor fit]
Oc1ccccc1-c1cc(-c2ccc(F)cc2)n[nH]1 8.91 µM [inhibitor, single point]
CCC(OCC(O)CN1CCCCC1)c1ccccc1 (stereo not drawn) 28.2 µM [inhibitor, single point]

Potency, active:
Cc1ccc(N2C(=O)N(CC(=O)Nc3ccc([N+](=O)[O-])cc3)C(=O)C2C)cc1 (stereo not drawn) 11.2 µM

Activity change, negative = inhibition, inactive:
Cc1ccc(-c2nc3cc(C)ccc3o2)cc1 -2.44%
Cc1cc(=O)[nH]c(SCC(=O)N2CCC(Cc3ccccc3)CC2)n1 -8.39%
Cc1nn(CCCC(=O)Nc2cccc(F)c2)c(=O)c2c1sc1ccccc12 18.5%
Cc1ccc[n+](CC(=O)Nc2c(Cl)cc(Cl)cc2Cl)c1 -1.98%
Cc1ccc2nc(C)c(C(=O)N/N=C/c3ccc(N4CCOCC4)cc3)cc2c1 52.4%
COc1ccccc1C(=O)Nc1nc2nc(C)c(Cc3ccccc3)c(=O)n2[nH]1 1.88%
N#C/C(=C/c1ccccc1[N+](=O)[O-])c1nnc2n1CCCCC2 -3.56%
CC(=O)c1ccc(NC(=O)Cn2ncc3c(C)n(Cc4ccc(F)cc4)c(C)c3c2=O)cc1 1.2%
CC(C)(C)S(=O)N1Cc2cc(C(=O)NCCCN3CCOCC3)nc(-c3cccc(-c4cc5ccccc5o4)c3)c2[C@H]1CCO (stereo partly drawn) 4.49%
COc1cc(NC(=S)NC2CC2)c(OC)cc1Cl -14.1%
O=C(NNC(=S)NC(=O)c1cccnc1)c1ccc(F)cc1 -1.35%
OC(CN1CCOCC1)c1ccc(F)cc1 (stereo not drawn) 7.05%
